# This is one part of the list. At the low end of the ranking, values are background and their order means little.
# Molecular target: SIX1 homeodomain (reference allele) (UniProt Q15475)
# Assay: universal protein binding microarray
# Settings: Universal all-10-mer PBM (8x60K, AMADID 030236), 300 nM GST-tagged protein, Alexa Fluor 488 anti-GST; buffer, salt, pH and temperature not stated; high values mean tight binding; most listed sequences are background and not binding sites; double strand, one strand shown
row,Sequence,binding signal [E-score]
1,CCAATTCC,0.102
2,GCATGTGA,0.0199
3,GTCCAGGA,-0.147
4,ACTATACG,0.247
5,CTAGGAAG,-0.0927
6,TCGGAGCA,-0.177
7,ACGAACTC,-0.0273
8,AATGCTTG,-0.227
9,AGGAGATC,0.363
10,CTTGAGGC,-0.249
11,CAGAGCGG,-0.207
12,AATTCAAC,-0.0214
13,ATGGAATC,0.0325
14,ATTTTGAA,-0.186
15,GCACCTTA,-0.219
16,AGAAAGGG,-0.0959
17,GTGTCAGA,0.29
18,AGATCGCC,0.288
19,CAAAAGAC,-0.107
20,GGAGTGCC,-0.142
21,GATGCCAA,0.0836
22,CCCTCCCA,0.0966
23,AGGAAAAT,-0.039
24,CATTTAAA,-0.0348
25,AAGCATTA,-0.148

row,Sequence,binding signal [E-score]
1,GGAATGGA,-0.233
2,CCTCTAGA,0.158
3,TACTAGTA,0.0474
4,CTCCGATA,0.314
5,ATATGAGC,0.208
6,AACCTATC,0.246
7,GGCCAAGA,-0.142
8,GACCGGAC,-0.146
9,AATTGAAT,-0.277
10,AAGCCACC,-0.318
11,GCACGAAC,-0.0288
12,ACGAATTG,-0.208
13,GGCTGCTA,-0.0967
14,CAACAGCC,-0.204
15,ACGTAGCG,-0.0908
16,GTGGTCGA,-0.162
17,TGCTGGAA,-0.114
18,CATCTCAA,0.118
19,ACAGCACC,-0.178
20,CACCGGGA,0.0394
21,ACCTAACT,-0.0768
22,CCACGTAA,-0.0978
23,AGATTAAC,0.0376
24,CGTGGAGC,-0.13
25,AAGTATAC,0.338

row,Sequence,binding signal [E-score]
1,ACACGCAT,-0.0263
2,GCAAGCTA,-0.207
3,ACCACGAC,0.0447
4,CAAACTTA,-0.241
5,GTCAGGAA,-0.134
6,AGTAGGCG,-0.0959
7,TGCACGAA,-0.19
8,CGCGCGAA,-0.085
9,GCTGTAGA,-0.0924
10,CGTACTTA,-0.101
11,GATCCCGA,0.377
12,CGCGGAGA,0.0136
13,CTTCCTAC,-0.273
14,GCTATGTA,-0.109
15,GCGTTAGA,0.197
16,CAGAGCTC,-0.283
17,GCAATATA,0.16
18,ATACCGTA,0.391
19,GTCATCTA,0.208
20,AGACGGAA,0.00724
21,AGGATCAC,0.435
22,CTTTAAGC,-0.014
23,AGTCTAAC,-0.183
24,ACACCTAC,0.191
25,CTGGCGGA,-0.0557

row,Sequence,binding signal [E-score]
1,CACGGGGC,-0.11
2,TGAGGCAA,-0.0572
3,CATGACGA,0.141
4,TCCAAGGA,0.0545
5,GCCCAAGC,-0.0718
6,CGACTACC,-0.126
7,ACCACACG,0.0658
8,GGGATGCA,1e-05
9,CTCGATCC,0.325
10,GACTTTTA,-0.173
11,CTACTGCC,-0.16
12,CGGGCAGA,0.117
13,GTAGAGGA,0.0143
14,ACCGAAGA,-0.104
15,ACATCGTG,-0.0141
16,AATCTAGC,0.0238
17,GCAAGGGA,-0.102
18,CTAAGCAG,-0.124
19,CATAGAGA,-0.0866
20,TCGAATCA,-0.126
21,GGAGCCCC,-0.023
22,GCGCAAGA,-0.15
23,CCCTACCA,-0.0974
24,AGCTCCCA,-0.0789
25,GACACAAC,-0.158

row,Sequence,binding signal [E-score]
1,GCCTATGA,-0.0282
2,CCCGTGCA,-0.0797
3,CTACTCGA,0.0499
4,TCATTCCA,0.0032
5,ATCAAATG,0.137
6,AGGCTACA,-0.133
7,AAATCTTC,-0.251
8,CACACCAC,0.206
9,CAGGCGGA,0.0619
10,GTCGGATA,0.407
11,ACATTCTG,-0.205
12,AATATGTG,0.197
13,CACGGAAG,0.0307
14,GCGTCCTA,-0.113
15,CTCTACGC,-0.122
16,CCTTTATA,-0.103
17,GGTGATGA,0.191
18,AGGGGTTC,-0.0504
19,ACAATTGC,-0.0574
20,CGTTGACC,-0.171
21,CACTCTTA,-0.0795
22,AGGAAAAG,-0.159
23,GAGAATAA,-0.106
24,ATCTGTTG,0.06
25,CGATCTAC,0.2

row,Sequence,binding signal [E-score]
1,AATGATAC,0.467
2,ATTTATAG,-0.186
3,GAAGGTGC,-0.0328
4,GAGGCCTA,-0.173
5,TAAATCAA,-0.0113
6,GTCGTTAA,-0.142
7,GCAGCACA,-0.12
8,CGACGGAA,-0.193
9,CCCTTCCA,-0.139
10,CCTACCGC,-0.133
11,CCTGAGCC,0.0587
12,AAAGATAG,0.0121
13,AGTATTGC,0.129
14,GGAGGAGA,0.11
15,ATGCGCCA,-0.204
16,TCTGCAGA,-0.0386
17,ACCTGAGC,-0.0241
18,CGGCACAC,0.0516
19,CGCAAGGA,0.057
20,TACCTTAA,-0.00198
21,CAAACTGA,-0.152
22,AATCCTTA,0.041
23,GCCGCTTA,-0.193
24,ACGATAGA,0.106
25,AATATTAC,-0.0457

row,Sequence,binding signal [E-score]
1,GACGGTGA,-0.0436
2,ATGTCGCC,-0.0613
3,CCCTACAG,-0.018
4,ATGGCCAA,-0.209
5,GCGGGAGC,-0.246
6,GCACTGAA,-0.342
7,ACCATCAC,0.0188
8,CGCAAATA,-0.178
9,CTCCGAAC,-0.0607
10,CATTTCGA,-0.113
11,ACTTGGTA,0.021
12,CCCAGGAC,0.13
13,CATGACGG,-0.0832
14,AAAAGCAT,-0.221
15,CCGTATTC,0.177
16,CGGATAGC,0.382
17,AAACGTAT,0.262
18,CCTAAGGC,-0.18
19,GAATACTA,0.14
20,GAAAGGAC,-0.0979
21,AAGAGGCG,-0.298
22,CAACCATA,-0.011
